Measured values as given in patent US20210403534A1 (R PHARM OVERSEAS, published 2021).

How the values were obtained:
[1] = target: T1, IL-1β IL-1F2, M. Rhesus recombinant, E. coli-derived, Ala117-Ser269 (M. Rhesus, UniProt P48090 117-269); test: cell-based or functional assay
T1 sequence (looked up): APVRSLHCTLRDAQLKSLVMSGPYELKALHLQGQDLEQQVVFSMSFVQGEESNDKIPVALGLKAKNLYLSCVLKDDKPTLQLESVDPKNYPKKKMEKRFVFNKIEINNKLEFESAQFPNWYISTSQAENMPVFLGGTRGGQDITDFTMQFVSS

[2] = target: T2, IL-1β/IL-1F2, Human recombinant, E. coli-derived, Ala117-Ser269 (human, UniProt P01584 117-269); test: cell-based or functional assay
[3] = target: T3, IL-1β/IL-1F2, Mouse recombinant, E. coli-derived, Vla118-Ser269 (mouse, UniProt P10749 118-269); test: cell-based or functional assay
T3 sequence (looked up): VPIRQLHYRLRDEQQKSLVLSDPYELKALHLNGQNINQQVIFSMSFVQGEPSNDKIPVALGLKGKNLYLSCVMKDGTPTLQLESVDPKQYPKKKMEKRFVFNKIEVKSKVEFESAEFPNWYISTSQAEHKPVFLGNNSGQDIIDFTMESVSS

[4] = target: T2, IL-1β/IL-1F2, Human recombinant, E. …; test: SPR (Biacore T200), heterodimer captured by anti-human IgG on CM5 chip, IL-1β as analyte; steady-state analysis, 1:1 Langmuir model
Procedure: 3. Human IL-1β/IL-1F2 were used at the concentrations specified in Table 2 where concentration of 3.676 nM was run two time independently as an internal control for the instrument reproducibility;
As an alternative way for Kd calculation, Steady-State data analysis using 1:1 Langmuir binding model was used. According to this method, Kd is calculated from series of plots of steady-state analyte binding levels (Req) against concentration.

IC50 of IL-1β/IL-1F2-induced IL-6 secretion, MRC5 cells [1]: 0.38 ng/ml and 1.9 pM | IC50 of IL-1β/IL-1F2-induced IL-6 secretion, MEFs [2]: 0.19 ng/ml and 0.95 pM | IC50 of IL-1β/IL-1F2-induced IL-6 secretion, MRC5 cells [2]: 0.22 ng/ml and 1.1 pM | IC50 of IL-1β/IL-1F2-induced IL-6 secretion, MEFs [3]: > 210 ng/ml and > 1050 pM | Kd [4]: 9.63 pM
B1: IL1R-FcV-RAcP-FcII heterodimer (Fc fusion)
chain 1: DKCKEREEKIILVSSANEIDVRPCPLNPNEHKGTITWYKDDSKTPVSTEQASRIHQHKEKLWFVPAKVEDSGHYYCVVRNSSYCLRIKISAKFVENEPNLCYNAQAIFKQKLPVAGDGGLVCPYMEFFKNENNELPKLQWYKDCKPLLLDNIHFSGVKDRLIVMNVAEKHRGNYTCHASYTYLGKQYPITRVIEFITLEENKPTRPVIVSPANETMEVDLGSQIQLICNVTGQLSDIAYWKWNGSVIDEDDPVLGEDYYSVENPANKRRSTLITVLNISEIESRFYKHPFTCFAKNTHGIDAAYIQLIYPVTNGSGGG[human IgG1 Fc with Y349C T366S L368A F405K Y407V (EU numbers) not shown]
chain 2: SERCDDWGLDTMRQIQVFEDEPARIKCPLFEHFLKFNYSTAHSAGLTLIWYWTRQDRDLEEPINFRLPENRISKEKDVLWFRPTLLNDTGNYTCMLRNTTYCSKVAFPLEVVQKDSCFNSPMKLPVHKLYIEYGIQRITCPNVDGYFPSSVKPTITWYMGCYKIQNFNNVIPEGMNLSFLIALISNNGNYTCVVTYPENGRTFHLTRTLTVKVVGSPKNAVPPVIHSPNDHVVYEKEPGEELLIPCTVYFSFLMDSRNEVWWTIDGKKPDDITIDVTINESISHSRTEDETRTQILSIKKVTSEDLKRSYVCHARSAKGEVAKAAKVKQKVPAPRYTVGSGGGDKTHTCPPCPAPELLGGPSVFLFPPKPKDTLMISRTPEVTCVVVDVSHEDPEVKFNWYVDGVEVHNAKTKPREEQYNSTYRVVSVLTVLHQDWLNGKEYKCKVSNKALPAPIEKTISKAKGQPREPQVYTLPPCRDELTKNQVSLWCLVKGFYPSDIAVEWESNGQPENNYKTTPPVLDSDGSFFLYSALTVDKSRWQQGNVFSCSVMHEALHNHYTQKSLSLSPG
notes: also called hIL1-R1-hIgG1-Fc polypeptide / hIL-1RAcP-hIgG1-Fc polypeptide heterodimeric protein assembly; hIL1-R1-hIgG1-Fc-II/IL-1RAcP-hIgG1-Fc-V

Several values for one entry are separate records, joined by “and”; a condition that tells them apart may be missing. Equal entries are not always repeated.
